First the molecules themselves.
B1: CPEB3 Ribozyme (parent)
chain: UAACAGGGGGCCACAGCAGAAGCGUUCACGUCGCAGCCCCUGUCAGAUUCUGGUGAAUCUGCGAAUUCUGCUGUAUAUCUC

Read counts are not given, so values of variants with three or more changes are uncertain.

Variants of B1 are the subject of this data set. Briefly: self-cleavage, relative activity (ratio to wild type); higher = more cleavage; in vitro, sequencing. The method in brief: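 Relative activity was defined as the cleaved/total read fraction for a variant divided by the same fraction for the unmutated ribozyme. CPEB3 self-cleaving ribozyme libraries were made by rounds of error-prone PCR, barcoded, and transcribed in vitro with T7 RNA polymerase for 5 hours at 37°C, and cleavage ran through transcription plus a 15 min DNase I step before EDTA. Illumina sequencing of template-switched reverse transcripts gave the reads, and DNA sequencing mapped the barcodes. Averages come from three batches, using variants with at least 5 reads.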
For the variant UAACAGGGGGCCGCAGCAGAAGCGUCCACGUCGCAGCCCCUGUCAGAUCCUGGUGAAUCUGCGAUUUCUGCUGUAUAUCUC, the self-cleavage is 0.07. UAACAGGGGGCCGCAGCAGAAGCGCUCACGUCGCAGCACCUGUCAGAUUCUGGUGAAUCUGCGGAUUCUGCUGUAUAUCUC: the self-cleavage is 0.18.

As to UAACAGGGGGCCGCAGCAGAAGCGCACACGUCGCAGCCCCUGUCGGAUUCUGGUGAAUCUGCGAAUUCUGCUGUAUAUCUC, the self-cleavage worked out at 0.08. For the variant UAACAGGGGGCCGCAGCAGAAGCGUCCACGUCGCAGCCCCUGUCAGGUUCUGGUGAAUCUGCGGAUUCUGCUGUAUAUCUC, the self-cleavage came to 0.14. The figure for UAACAGGGGGCCGCAGCAGAAGCGCUCAGGUCGCAGCCCCUGCCAGAUUCUGGUGAAUCUGCGAAUUCUGCUGUAUAUCCC is 0.22; for UAACAGGGGGCCGCAGCAGAAGCGCUCACGUCGCUGCCCCUGUCAGGUUCUGGUGAAUCUGCGAAUUCUGCUGUAUAUCUC it is 0.26; for UAACAGGGGGCCGCAGCAGAAGCGCUCACGUCGCAGCCCCUGUCAGAUUCUGGUGAAUCUGCGAAAUCUGCUGUAUAUCUC it is 0.18. As to UAACAGGGGGCCGCAGCAGAAGCGCUCACGUCGCAGCCCCUGUCGGAUUCUGGUGAAUCUGCGAAUUCUGCUGUAUACCUC, the self-cleavage came out at 0.08. In the case of UAACAGGGGGCCGCAGCAGAAGCGUACACGUCACAGCCCCUGCCAGAUUCUGGUGAGUCUGUGUAUUCUGCUGUAUAUCUC, the self-cleavage came out at 0.09. With UAACAGGGGGCCGCAGCAGAAGCGGUCACGUCGCAGCCCCUGUCAGAUCCUGGUGAAUCUGCGAAUUCUGCUGUAUAUCUC, the self-cleavage turned out to be 0.43.

Regarding UAACAGGGGGCCGCAGCAGAAGCGUCCACGUAGCAGCCCCUGUCAGAUUCUGAUGAAUCUGCGAAUUCUGCUGUAUAUCUC, the self-cleavage was determined as 0.07. The value for UAACAGGGGGCCGCAGCAGAAGCGUCCACGUCGCAGCCCCUGUCAGAUUCUGGUAAAUCUGCGAAUUCUGCUGUAUAUCUC was 0.18; that for UAACAGGGGGCCGCAGCAGAAGCGCUCACGUCGCAGCCCCUGUCAGAUUUUGGUGAAUCUGCAAAUCGUGCUGUAUAUCUC was 0.04. The figure for UAACAGGGGGCCGCAGCAGAAGCGCUCACGUCGCAGCCCCUGUCGGAUUCUGGUGAGUCUGCGGAUUCUGCUGUAUAGCUC is 0.12; for UAACAGGGGGCCGCAGCAGAAGCGUCCACGUCGCAGCACCUGUCAGAUUCCGGUGAAUCUGCGAAUUCCGCUGUAUAUCUC it is 0.06; for UAACAGGGGGCCGCAGCAGAAGCGCUCACGUCGCAGCCCCUGUCAGAUUCUGGUGGAUCUGCGAAUUCAGCUGUAUAUCUC it is 0.14. The figure for UAACAGGGGGCCGCAGCAGAAGCGCUCACGUCGCUGCCCCUGUCGGAUUCUGGUGAAUCUGCGAAUUCUGCUGUAUAUCUC is 0.26; for UAACAGGGGGCCGCAGCAGAAGCGCUCACGUCGCAGCCCCUGUCAGAUUCUGGUGAAUUUGCGAAUUCUGCUGUAUAUCUC it is 0.27; for UAACAGGGGGCCGCAGCAGAAGCGUCCAAGUCGCAGCCCCUGUCAGAUUCUGGUGAAUCUGCGAAUUCCGCUGAAUGUCUC it is 0.03. In the case of UAACAGGGGGCCGCAGCAGAAGCGUCCACGUCGCAGCCCCUGUCAGGUUCUGGUGAAUCUGCGAAUUCUGCUGUGUAUCUC, the self-cleavage came to 0.2. In the case of UAACAGGGGGCCGCAGCAGAAGCGUCCACGUCGCAGCCCCUGUCUGAUUCUGGUGAAUCUGCGAAUUCAGCUGUAUAUCUC, the self-cleavage stood at 0.22. The figure for UAACAGGGGGCCGCAGCAGAAGCGUACACGUCGCAGCCCCUGUCAGAUUCUGGUGGAACUGCGAAUUCUGCUGUGUAUCCC is 0.1; for UAACAGGGGGCCGCAGCAGAAGCGCUCACGUCGCAGCCCCUGUCAGAUUCUGGUGAAUCCGCGAAUUCUGCUGUAUAUCUC it is 0.36. The figure for UAACAGGGGGCCGCAGCAGAAGCGUCCACGUCGCAGCCCCUGUCAGAUUCUGGUGAAUCUGCGAGUUCUGCUGUACAUCUC is 0.09. For UAACAGGGGGCCGCAGCAGAAGCGCUCACGUCGCAGCCCCUGUCAGAUUCCGGUGAAUCUGCGAAUUCUGCUGUAUAUCCC, the self-cleavage worked out at 0.26. For UAACAGGGGGCCGCAGCAGAAGCGCUCACGUCGCAGCCCCUGUCAGAUUCUGGAGAAUCUGCGAUUUCUGCUGUAUAUCUC, the self-cleavage worked out at 0.08. Consider UAACAGGGGGCCGCAGCAGAAGCGCUCACGUCGCAGCCCCUGUCAGAUACUGGUGAAUCUGCGAAUUCUGCUGUAUAUCUC, for which the self-cleavage amounted to 0.17. As to UAACAGGGGGCCGCAGCAGAAGCGUACACGUCGCAGCCCCUGUCAGAUUCUGGUGAAUCUACGAAUACUGCUGUAUAUCUC, the self-cleavage worked out at 0.18. Consider UAACAGGGGGCCGCAGCAGAAGCGCCCACGUCGCAGCCCCUGUCAGAUUCUGGUGAAUCUGCGAAUUCUGCUGUAUAUUUC, for which the self-cleavage is 0.39.

In the case of UAACAGGGGGCCGCAGCAGAAGCGUCCCCGUCGCAGCCCCUGUCAGAUUCUGGUGAAUCAGCGAAAUCUGCUGUAUAUCCC, the self-cleavage was found to be 0.11. With UAACAGGGGGCCGCAGCAGAAGCGUCCACGUCGCAGCCUCUGUCAGAUUCUGGUGAAUCUGCGAGUUCUGCUGUAUAUCUC, the self-cleavage is 0.15.

Regarding UAACAGGGGGCCGCAGCAGAAGCGCUCACGUCACAGCCCCUGUCAGAUUCUGGUGAAUCUGCGAGUUCUGCUGUAUAUCUC, the self-cleavage worked out at 0.19. Turning to UAACAGGGGGCCGCAGCAGAAGCGUCCACGUCGCAGCCCCUGCCAGAUUCUGGUGAAUCUGCGGAUUCAGCUGUAUAUCUC, the self-cleavage was found to be 0.05. Turning to UAACAGGGGGCCGCAGCAGAAGCGUACGCGUCGCAGCCCCUGUCCGAUCCUGGUGAAUCUGUGAAUUCUGCCGUAUAUCUC, the self-cleavage amounted to 0.02.
